{"source": "the supplement of paper PMC11060735", "note": "Counter-ions that a name gives are not always drawn. Screen size: about 1,800 compounds; about 50 (3%) showed activity. Some of the results follow.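 Note: fibroblasts sorted 14 days after bleomycin, GFP+ and GFP− mixed 1:1 in 384-well plates (GFP− as in-well control), imaged after Hoechst and NucView530 staining, reference wells lacked compound.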", "data": [{"test_system": "mouse p16Ink4a+/- lung fibroblasts (INKBRITE, bleomycin-injured)", "assay": "percentage of GFP+ (p16Ink4a+) fibroblasts among all cells in well; higher = less depletion of p16Ink4a+ cells, active = 20 or less", "settings": "1 µM; 3 days", "values": [{"compound": "c1cc(-c2cnn3cc(-c4ccc(N5CCNCC5)cc4)cnc23)c2cccnc2c1", "percentage of GFP+": "inactive: 39.2%"}, {"compound": "Cc1c(Cn2c(C)nc3c(C(=O)O)cc(N4CCOCC4)cc32)cccc1C(F)(F)F", "percentage of GFP+": "inactive: 52.7%"}, {"compound": "COc1ccc(-c2ccc3c(N4CCOCC4)nc(N4C[C@@H](C)O[C@@H](C)C4)nc3n2)cc1CO", "percentage of GFP+": "inactive: 23.7%"}, {"compound": "CC(=O)N[C@@H](CS)C(=O)O", "note": "[Acetylcysteine]", "percentage of GFP+": "inactive: 39%"}, {"compound": "Nc1c(Br)cc(Br)cc1CN[C@H]1CC[C@H](O)CC1", "note": "[Ambroxol]", "percentage of GFP+": "inactive: 44.2%"}, {"compound": "CNCCC(Oc1ccc(C(F)(F)F)cc1)c1ccccc1", "note": "(stereo unspecified) [Fluoxetine Hydrochloride, Fluoxetine]", "percentage of GFP+": "inactive: 29.3%"}, {"compound": "O=C(CCCCCCC(=O)Nc1ccccc1)NO", "note": "[Vorinostat]", "percentage of GFP+": "inactive: 41.4%"}, {"compound": "Nc1cc(C(F)(F)F)c(-c2cc(N3CCOCC3)nc(N3CCOCC3)n2)cn1", "note": "[Buparlisib]", "percentage of GFP+": "inactive: 41.6%"}, {"compound": "CNC[C@H](O)[C@@H](O)[C@H](O)[C@H](O)CO", "note": "[Meglumine]", "percentage of GFP+": "inactive: 34.1%"}, {"compound": "Cc1ccnc(NS(=O)(=O)c2ccc(N)cc2)n1", "note": "[Sulfamerazine]", "percentage of GFP+": "inactive: 43.6%"}, {"compound": "Cc1cc(-n2c(=O)[nH]c(=O)n(C)c2=O)ccc1Oc1ccc(SC(F)(F)F)cc1", "note": "[Toltrazuril]", "percentage of GFP+": "inactive: 49.4%"}, {"compound": "Cn1c(=O)n(-c2ccc(C(C)(C)C#N)cc2)c2c3cc(-c4cnc5ccccc5c4)ccc3ncc21", "note": "[Dactolisib]", "percentage of GFP+": "inactive: 36%"}, {"compound": "NC(=O)c1ncn([C@@H]2O[C@H](CO)[C@@H](O)[C@H]2O)n1", "note": "[Ribavirin]", "percentage of GFP+": "inactive: 41.5%"}, {"compound": "Cc1ccc(C(=O)C(C)CN2CCCCC2)cc1", "note": "(stereo unspecified) [Tolperisone]", "percentage of GFP+": "inactive: 47.7%"}, {"compound": "Nc1ccn([C@@H]2CS[C@H](CO)O2)c(=O)n1", "note": "[Lamivudine]", "percentage of GFP+": "inactive: 44.1%"}, {"compound": "C[C@]12CCC3=C4CCC(=O)C=C4CC[C@H]3[C@@H]1CC[C@@]2(O)CC#N", "note": "[Dienogest]", "percentage of GFP+": "inactive: 31.3%"}, {"compound": "CCOc1ccn(-c2ccc(F)cc2)c(=O)c1C(=O)Nc1ccc(Oc2ccnc(N)c2Cl)c(F)c1", "percentage of GFP+": "inactive: 54.5%"}, {"compound": "CN1CCN(CCCN2c3ccccc3Sc3ccc(C(F)(F)F)cc32)CC1", "note": "[Trifluoperazine]", "percentage of GFP+": "inactive: 52%"}, {"compound": "CO[C@H]1C[C@@H]2CC[C@@H](C)[C@@](O)(O2)C(=O)C(=O)N2CCCC[C@H]2C(=O)O[C@H]([C@H](C)C[C@@H]2CC[C@@H](OP(C)(C)=O)[C@H](OC)C2)CC(=O)[C@H](C)/C=C(\\C)[C@@H](O)[C@@H](OC)C(=O)[C@H](C)C[C@H](C)/C=C/C=C/C=C/1C", "note": "[Ridaforolimus, Deforolimus]", "percentage of GFP+": "inactive: 34.9%"}, {"compound": "CC(C)(C)OC(=O)N[C@H]1CCCCC/C=C\\[C@@H]2C[C@@]2(C(=O)NS(=O)(=O)C2CC2)NC(=O)[C@@H]2C[C@@H](OC(=O)N3Cc4cccc(F)c4C3)CN2C1=O", "note": "[Danoprevir]", "percentage of GFP+": "inactive: 41.7%"}, {"compound": "COc1ccc(C[C@H](NC(=O)[C@H](C)NC(=O)CN2CCOCC2)C(=O)N[C@@H](Cc2ccccc2)C(=O)[C@]2(C)CO2)cc1", "percentage of GFP+": "active: 11.6%"}, {"compound": "COc1cc2ncnc(Nc3cccc(Cl)c3)c2cc1OC", "percentage of GFP+": "inactive: 50.1%"}, {"compound": "O[C@@H]1CO[C@H]2[C@@H]1OC[C@@H]2O", "note": "[Isosorbide]", "percentage of GFP+": "inactive: 53%"}, {"compound": "Cc1c(C(=O)NN2CCCCC2)nn(-c2ccc(Cl)cc2Cl)c1-c1ccc(Cl)cc1", "note": "[Rimonabant]", "percentage of GFP+": "inactive: 48%"}, {"compound": "CN(C)CCOc1ccc(/C(=C(/CCCl)c2ccccc2)c2ccccc2)cc1", "note": "[Toremifene]", "percentage of GFP+": "inactive: 44.3%"}, {"compound": "CCOC(=O)CC(=O)N1CCSC1COc1ccccc1OC", "note": "(stereo unspecified) [Moguisteine]", "percentage of GFP+": "inactive: 39.2%"}, {"compound": "O=C(NC(Cc1cc(O)nc2ccccc12)C(=O)O)c1ccc(Cl)cc1", "note": "(stereo unspecified) [Rebamipide]", "percentage of GFP+": "inactive: 41.9%"}, {"compound": "CCCCCCCCCC(=O)N[C@@H](Cc1c[nH]c2ccccc12)C(=O)N[C@H](CC(N)=O)C(=O)N[C@@H](CC(=O)O)C(=O)N[C@@H]1C(=O)NCC(=O)N[C@H](CCCN)C(=O)N[C@@H](CC(=O)O)C(=O)N[C@@H](C)C(=O)N[C@@H](CC(=O)O)C(=O)NCC(=O)N[C@H](CO)C(=O)N[C@@H]([C@@H](C)CC(=O)O)C(=O)N[C@@H](CC(=O)c2ccccc2N)C(=O)O[C@@H]1C", "note": "[Daptomycin]", "percentage of GFP+": "inactive: 37.2%"}, {"compound": "CCCNC(=O)Nc1ccc(Oc2ncnc3cc(OC)c(OC)cc23)cc1Cl", "percentage of GFP+": "inactive: 38.6%"}, {"compound": "Cc1cccc(Nc2ccncc2S(=O)(=O)NC(=O)NC(C)C)c1", "note": "[Torasemide]", "percentage of GFP+": "inactive: 41.5%"}, {"compound": "O=C(O[C@H]1CN2CCC1CC2)N1CCc2ccccc2[C@@H]1c1ccccc1", "note": "[Solifenacin]", "percentage of GFP+": "inactive: 53.4%"}, {"compound": "c1ccc2c(CCNc3ccc(Nc4ccncc4)cc3)c[nH]c2c1", "note": "[Serdemetan]", "percentage of GFP+": "inactive: 38.5%"}, {"compound": "C=C1C(=O)O[C@H]2[C@H]1CC/C(C)=C\\CC[C@@]1(C)O[C@@H]21", "note": "[(-)-Parthenolide]", "percentage of GFP+": "inactive: 31.1%"}, {"compound": "CCC[C@@H]1O[C@@H]2C[C@H]3[C@@H]4CCC5=CC(=O)C=C[C@]5(C)[C@H]4[C@@H](O)C[C@]3(C)[C@]2(C(=O)CO)O1", "note": "[Budesonide]", "percentage of GFP+": "inactive: 30.8%"}, {"compound": "CC(C)(C)/[N+]([O-])=C/c1ccc(S(=O)(=O)O)cc1S(=O)(=O)O", "percentage of GFP+": "inactive: 45.9%"}, {"compound": "CC[C@H](c1ccc(O)cc1)[C@@H](CC)c1ccc(O)cc1", "note": "[Hexestrol]", "percentage of GFP+": "inactive: 46.7%"}, {"compound": "NC1=N[C@@]2(c3cc(NC(=O)c4ccc(F)cn4)ccc3F)COC[C@H]2CS1", "percentage of GFP+": "inactive: 42.7%"}, {"compound": "Cc1nccn1CC1CCc2c(c3ccccc3n2C)C1=O", "note": "(stereo unspecified) [Ondansetron]", "percentage of GFP+": "inactive: 37.2%"}, {"compound": "C1N2CN3CN1CN(C2)C3", "note": "[Hexamethylenetetramine]", "percentage of GFP+": "inactive: 50.1%"}, {"compound": "COc1cc2c(cc1O)CC[C@@H]1[C@@H]2CC[C@]2(C)[C@@H](O)CC[C@@H]12", "note": "[2-Methoxyestradiol]", "percentage of GFP+": "inactive: 30.7%"}, {"compound": "O=C1c2c(O)cc(O)cc2O[C@H](c2ccc(O)c(O)c2)[C@H]1O", "note": "[Taxifolin (Dihydroquercetin)]", "percentage of GFP+": "inactive: 43.8%"}]}]}
